Reference: the supplement of paper PMC3334620
The full ranking holds about 33,000 sequences; the median of “E-score (-0.5 to 0.5)” is about -0.035, and the highest 2% start at about 0.35. Some of the results follow.

What follows are sequences tested against T1, Pdr3 (UniProt P33200) (assay: PBM E-score (8-mer binding enrichment) (E-score (-0.5 to 0.5)); higher = stronger / more preferred TF binding; most listed sequences are background and not binding sites). Conditions: protein concentration: 200 nM; construct: GST-full length.
T1 sequence: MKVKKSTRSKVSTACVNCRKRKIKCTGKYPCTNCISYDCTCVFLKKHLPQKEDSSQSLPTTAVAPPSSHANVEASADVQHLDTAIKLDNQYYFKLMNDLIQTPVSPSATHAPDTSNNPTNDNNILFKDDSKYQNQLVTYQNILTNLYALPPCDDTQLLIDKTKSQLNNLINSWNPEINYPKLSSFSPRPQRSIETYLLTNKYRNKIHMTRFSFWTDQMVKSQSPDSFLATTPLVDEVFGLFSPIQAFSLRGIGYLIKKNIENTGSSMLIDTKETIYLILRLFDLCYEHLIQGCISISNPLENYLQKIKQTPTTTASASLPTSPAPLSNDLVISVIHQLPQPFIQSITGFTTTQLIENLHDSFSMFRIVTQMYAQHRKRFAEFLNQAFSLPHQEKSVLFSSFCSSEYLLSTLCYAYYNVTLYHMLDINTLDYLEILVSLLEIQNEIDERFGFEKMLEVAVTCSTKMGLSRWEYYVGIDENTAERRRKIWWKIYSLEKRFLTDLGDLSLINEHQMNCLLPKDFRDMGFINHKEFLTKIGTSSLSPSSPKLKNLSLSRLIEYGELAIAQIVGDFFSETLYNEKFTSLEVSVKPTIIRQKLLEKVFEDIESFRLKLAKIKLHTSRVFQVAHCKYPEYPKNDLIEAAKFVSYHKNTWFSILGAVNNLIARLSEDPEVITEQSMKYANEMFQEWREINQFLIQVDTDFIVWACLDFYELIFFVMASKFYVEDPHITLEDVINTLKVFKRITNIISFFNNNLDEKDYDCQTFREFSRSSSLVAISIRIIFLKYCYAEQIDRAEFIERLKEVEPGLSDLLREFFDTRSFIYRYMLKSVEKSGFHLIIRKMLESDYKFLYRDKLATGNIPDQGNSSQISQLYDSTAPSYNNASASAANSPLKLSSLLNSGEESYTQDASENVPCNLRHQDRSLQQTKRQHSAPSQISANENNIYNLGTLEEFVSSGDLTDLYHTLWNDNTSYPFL
In short: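 For each ungapped eight-base word taken together with its reverse complement, the Universal PBM Analysis Suite assigned an E-score. Binding data came from GST-tagged yeast transcription factors, applied at about 100-200 nM, on universal all-10-mer Agilent arrays made double-stranded by primer extension. Fluorescent anti-GST marked bound protein, and scans were normalised with masliner.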

Row | Sequence | PBM E-score
1 | ATAATTGA | 0.0204
2 | CGTGTAAC | -0.0863
3 | ATCCCTCC | 0.0107
4 | CGGTATCC | 0.248
5 | TTACCCAA | -0.285
6 | ACCACACT | -0.0302
7 | CTGAGGGC | -0.316
8 | ATAAATAT | 0.196
9 | CGGTCGCC | 0.224
10 | CTACACCC | -0.0586
11 | GCGGCCAC | 0.123
12 | TCGCACCA | 0.0248
13 | GAGATTAC | -0.0428
14 | CGCACGGA | 0.413
15 | AATTCACT | -0.118
16 | AGCGCGCG | 0.246
17 | AAACCTCG | -0.0122
18 | ACAGTCCT | -0.289
19 | ATCCTCAC | -0.0113
20 | ATTGAAGA | -0.128
21 | ATTATGCC | 0.07
22 | CAGACATG | -0.0994
23 | AGCTACCC | -0.153
24 | CGACCGTC | -0.207

Row | Sequence | PBM E-score
25 | ACAACCGA | 0.136
26 | ATAGGAGG | -0.198
27 | TGGAATAA | -0.00691
28 | AGTGAGAA | 0.0591
29 | GCTCGCTA | -0.0721
30 | AGTACCAT | -0.172
31 | AACGGACA | 0.363
32 | CCTAATGC | -0.312
33 | ACGGAGCC | 0.305
34 | AGGCGTAC | -0.182
35 | ACTGACTG | -0.0706
36 | TAATACTA | 0.00766
37 | AATTTTTC | 0.148
38 | CGCACTCC | 0.0021
39 | ACCCGAAT | 0.249
40 | CTGATAAC | -0.125
41 | ATCTAAAA | -0.032
42 | CGTAAGGC | -0.231
43 | GAACCGCC | 0.19
44 | TCCCCGGA | 0.411
45 | CTAGTTTC | 0.153
46 | CGTTCGCC | 0.0459
47 | CAGGGGAA | -0.00991
48 | ATCCGCAC | 0.333

Row | Sequence | PBM E-score
49 | CACAATCA | 0.0165
50 | GGATACAC | 0.182
51 | AGACGCAT | 0.00451
52 | CCATAAAG | -0.164
53 | ATCTTGCC | 0.0916
54 | ACTTGTAG | -0.226
55 | GACTTAGC | -0.195
56 | ACCTCGGC | 0.307
57 | ACAGTGCC | 0.115
58 | TCCTCGAA | -0.0662
59 | GAAAATTC | 0.107
60 | CATTGGTA | 0.0535
61 | ATGTCCTC | -0.0318
62 | CGCCTATC | -0.0409
63 | GCTCTTGA | -0.0768
64 | ATCGCCAA | -0.207
65 | ACCATGCG | 0.0439
66 | GGGTCGCA | 0.0855
67 | AATAAAGT | 0.00316
68 | AGAGAATG | -0.141
69 | TCTATCAA | -0.198
70 | GCTATGCC | -0.126
71 | CCCTGCTA | -0.0619
72 | AGTCATGG | -0.234

Row | Sequence | PBM E-score
73 | ACTACCAG | -0.173
74 | CGTGTGGC | -0.155
75 | CTCACACC | -0.125
76 | AAACTCCA | -0.153
77 | ATACAATC | -0.0612
78 | AGTGCAGA | -0.0503
79 | AACAAGTT | 0.119
80 | ACTCCTCA | -0.254
81 | AGGTCGTA | -0.175
82 | AAAACCGC | 0.0662
83 | AGTACAGC | -0.141
84 | AGATTTGC | 0.101
85 | ATCCATTA | -0.0375
86 | CGCATCCG | 0.29
87 | AACGCATG | -0.033
88 | ATACATCG | 0.0886
89 | ACGACTAG | -0.175
90 | ACGGGGCG | 0.183
91 | CACGACGC | -0.0958
92 | CATGGCGC | 0.0836
93 | CGCCCGCC | 0.239
94 | ACCATTCT | -0.114
